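48-hour exposure; five concentrations; linearly interpolated endpoints. Here, GI50 denotes the concentration required for 50% inhibition of growth.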 Not every entry of the source has a single result; some have several. This is not the full list of results. There may be further records. For part of these data: Records of one sample usually come from different ranges of test concentrations, which the source does not state; some values may only mark the edge of a range.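 Definition used: TGI = concentration required for complete inhibition of growth.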 For part of these data: The records of an entry are repeated measurements (runs, samples, wells, individuals or studies). Records carry a tag for their origin. Letters hold for one entry only. *1 amine or outer side, *2 acyl side, *3 side chain or, on linkers, in order; H or OH if unused. Where a SMILES comes first, the peptide text is derived from it. Bridges are numbered along the chain shown (N, C = ends). Roman numbers before positions name the chains, in order. [ ]: non-standard residue; d: D form. Actinocin(1to9) = Cc1c2oc3c(C)ccc(C(=O)[*:2])c3nc-2c(C(=O)[*:1])c(N)c1=O; NMeV = CN[CH](C(=O)O)C(C)C; Sar = CNCC(=O)O
Legend:
Assay in all cases: NCI tumour cell line growth inhibition, 48 h
[1] = test system: K-562 leukemia
[2] = test system: T-47D breast
[3] = test system: MOLT-4 leukemia
[4] = test system: CAKI-1 renal
[5] = test system: NCI-H226 lung
[6] = test system: SR leukemia
[7] = test system: MALME-3M melanoma
[8] = test system: HOP-62 NSCLC
[9] = test system: A549 NSCLC
[10] = test system: SF-539 CNS
[11] = test system: OVCAR-3 ovarian
[12] = test system: SN12C renal
[13] = test system: 786-0 renal
[14] = test system: MDA-MB-435
[15] = test system: SK-OV-3 ovarian
[16] = test system: OVCAR-8 ovarian
[17] = test system: NCI-H23 lung
[18] = test system: DU-145 prostate
[19] = test system: NCI/ADR-RES ovarian
[20] = test system: PC-3 prostate
[21] = test system: TK-10 renal
[22] = test system: U251 CNS
[23] = test system: HS 578T breast
[24] = test system: ACHN renal
[25] = test system: MDA-MB-231 breast
[26] = test system: UACC-62 melanoma
[27] = test system: SF-268 CNS
[28] = test system: A498 renal
[29] = test system: SF-295 CNS
[30] = test system: OVCAR-4 ovarian
[31] = test system: EKVX NSCLC
[32] = test system: HCC-2998 colon
[33] = test system: OVCAR-5 ovarian
[34] = test system: UO-31 renal
[35] = test system: HT29 colon
[36] = test system: NCI-H460 lung

CCC(=O)OCN1C(=O)C=CC1=O was tested, and the TGI [1] was 9.88 µM [sample A] and > 100 µM [sample B], the TGI [2] was 2.98 µM [sample A, 1 test] and 46.9 µM [sample B, 1 test] and the TGI [3] was 5.8 µM [sample A] and > 100 µM [sample B].

For OCC(O)C(O)C(C=NNc1ncnc2ccc(Br)cc12)=NNc1ncnc2ccc(Br)cc12 (stereo not given), the TGI [4] was 9.43 µM [sample A] and > 100 µM [sample B], the TGI [5] was 8.75 µM [sample A] and > 100 µM [sample B] and the TGI [6] was 6.01 µM [sample A] and > 100 µM [sample B]. The TGI [7] was 6.77 µM [sample A] and 79.7 µM [sample B].

For C[C@H](CCCOS(C)(=O)=O)[C@H]1CC[C@H]2[C@@H]3CC[C@@H]4C[C@H](OS(C)(=O)=O)CC[C@]4(C)[C@H]3CC[C@]12C, the TGI [8] was 59.2 µM and 1.29 mM, the TGI [9] was 39.5 µM and > 2.5 mM and the TGI [10] was 58.6 µM and 2.46 mM. The TGI [11] was 46.2 µM and > 2.5 mM, the TGI [12] was 44.2 µM and > 2.5 mM and the TGI [13] was 65.1 µM and > 2.5 mM. The TGI [14] was 47.1 µM and > 2.5 mM, the TGI [15] was 82.4 µM and > 2.5 mM and the TGI [4] was 39.9 µM and > 2.5 mM. The TGI [16] was 28.1 µM and > 2.5 mM, the TGI [17] was 31.9 µM and 647 µM and the TGI [5] was 58.1 µM and > 2.5 mM. The TGI [18] was 93.5 µM and > 2.5 mM, the TGI [19] was 65.1 µM and 867 µM and the TGI [20] was 64.5 µM and > 2.5 mM. For the same molecule, the TGI [21] was 36.7 µM and 1.62 mM, the TGI [22] was 29.3 µM and 700 µM and the TGI [23] was 63.8 µM and 1.33 mM. For the same molecule, the TGI [24] was 32.8 µM and 859 µM, the TGI [25] was 36.5 µM and 1.38 mM and the TGI [26] was 93.6 µM and > 2.5 mM. For the same molecule, the TGI [27] was 93.8 µM and 1.8 mM, the TGI [28] was 59.6 µM and > 2.5 mM and the TGI [7] was 59.2 µM and > 2.5 mM.

For COc1ccc2c(c1)NC(=O)CN2c1nc(C)nc2ccccc12, the TGI [29] was 2.14 nM and > 100 µM, the GI50 [30] was 2.43 nM and 10.4 µM and the GI50 [5] was 3.03 nM and 31.1 nM. For the same molecule, the GI50 [31] was 0.632 nM and 10.6 nM and the TGI [28] was 7.49 nM and > 100 µM.

NC(=S)N=Nc1c(O)[nH]c2ccccc12 was tested, and the TGI [32] was 3.11 µM and 459 µM, the TGI [17] was 4.4 µM and 383 µM and the TGI [19] was 3.72 µM and 414 µM. For the same molecule, the TGI [33] was 7.23 µM and 544 µM.

With CCC(C)C1NC(=O)C(NC(=O)c2c3nc4c(C(=O)NC5C(=O)NC(C(C)C)C(=O)N6CCCC6C(=O)N(C)CC(=O)N(C)C(C(C)C)C(=O)OC5C)ccc(C)c4oc-3c(C)c(=O)c2N)C(C)OC(=O)C(C(C)C)N(C)C(=O)CN(C)C(=O)C2CCCN2C1=O (stereo not given) (I: TIP[Sar][NMeV] / II: TVP[Sar][NMeV]; ester I:1-I:C, II:1-II:C; linker I:N-II:N via Actinocin(1to9); configuration not given here) the TGI [8] was 360 nM and 15 µM, the TGI [29] was 719 nM and 11.9 µM and the TGI [34] was 445 nM and 40.7 nM. The TGI [35] was 172 nM and 1.79 µM and the TGI [36] was 104 nM and 15.7 µM.

— PubChem BioAssay (NCI)
